# Measurements as given in PubChem BioAssay AID1347417 (National Center for Advancing Translational Sciences (NCATS), 2020).
# In all, about 120,000 compounds went through this assay and about 5,300 (4.4%) were called active. Inconclusive results, whose numbers are uncertain, are shown with a selection of clear calls. The call rests on the fitted dose curve; in most records, active means well fitted inhibition curve with a large enough effect; inconclusive means small, poorly fitted or top-dose-only effect; inactive means no such curve, though single readings can be large or run the other way. Potencies of inconclusive entries are doubtful fits and often do not repeat.
# Experiment: qHTS Primary assay for Inhibitors of Plasmodium falciparum Dd2 growth in vitro; further: nearly all actives have a fitted effect of over 65% in size;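 on activity, negative = inhibition: plate controls were DMSO vehicle for no effect and reference drug for full effect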
# Settings: P. falciparum Dd2 growth, SYBR Green, 72 h; activity, negative = inhibition: at 28.9 µM (top of the series) unless noted; series mostly up to 28.9 µM
# Summary of the method: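 Infected erythrocytes (Dd2, 0.3% parasitemia, 2.5% hematocrit final) are added to compound in RPMI-1640/Albumax II medium, grown 72 h at 37C in low oxygen, then lysed with saponin/Triton-X containing SYBR Green and read by fluorescence.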
# Potency means the concentration at half of the fitted maximal effect; tags describe the fitted curve by direction and shape.
Structure (SMILES),Potency,"activity, negative = inhibition"
COc1ccc(CC(=O)Nc2cnc(-c3ccc(C)cc3)nc2)cc1,"inconclusive: 2.51 µM [inhibitor, single point]",–
CN(Cc1ccc(-c2ccccc2)cc1)Cc1ccsc1,"inconclusive: 14.1 µM [inhibitor, single point]",–
CCCC(=O)N1Cc2ccccc2CC2(CCN(CC3CCOCC3)CC2)C1,"inconclusive: 12.6 µM [inhibitor, single point]",–
COCC(=O)N[C@H]1C[C@@H](CO)N(Cc2cccc(C#N)c2)C1,inactive,–
CC(=O)N1CCC(NC[C@@H]2C=C(C)[C@H](Cc3nc4ccc(C)cc4[nH]3)C[C@H]2C(C)C)CC1,active: 11.2 µM,–
O=C(O)Cn1ccc2cc(OCCc3cccc(-c4cccc(F)c4)c3)cnc21,inactive,–
CC(C)N1CC2CCC(C1)N2Cc1cccc(-c2ccsc2)c1,active: 11.2 µM,–
Cc1cc(F)ccc1NC(=O)Cn1c(=O)ccc2cc(S(=O)(=O)N3CCC(C)CC3)ccc21,"inconclusive: 0.0282 µM [inhibitor, full curve, poor fit]",–
COc1ccc(NC(=O)Cn2c(=O)n(Cc3ccc(C(=O)NCc4ccccc4Cl)cc3)c(=O)c3ccccc32)cc1,active: 10 µM,–
COc1ccc(Cn2nnc3c(=O)[nH]c(C4CCN(C(=O)c5ccc(C)cc5)CC4)nc32)cc1OC,"inconclusive: 14.1 µM [inhibitor, partial curve, poor fit]",–
Cc1cnc(CC2CC(=O)N(c3ccccc3)C2)nc1N(C)C (stereo not given),"inconclusive: 11.2 µM [inhibitor, partial curve, poor fit]",–
CCCC1=Nc2cc(C(=O)NCCc3ccc(OC)c(OC)c3)ccc2Sc2ccc(C)cc21,active: 10 µM,–
COc1ccc(NC(=O)c2c(NC(=O)Cc3ccccc3)sc3c2CCCC3)cc1,"inconclusive: 10 µM [inhibitor, single point]",–
Cc1cc2nc3n(c(=O)c2n1CC(=O)NCCCc1ccccc1)CCCC3,inactive,–
COc1cccc(N2C(=O)NC(=NC3CCCCC3)C23CCCN(CC2CCCCC2)C3)c1 (stereo not given),active: 12.6 µM,–
COc1ccc(CN2CCCn3nc(C)c(-c4ccccc4Oc4ccccc4)c32)cc1O,active: 1.26 µM,–
Cn1c(=O)cc(C(=O)NC2CCCc3c2[nH]c2ccc(Cl)cc32)c2ccccc21 (stereo not given),"inconclusive: 3.55 µM [inhibitor, single point]",–
CCc1cc(=O)n(CC(=O)Nc2ccccc2C)c(-c2cccc(F)c2)n1,inactive,–
COc1cccc([C@H]2CN(C(=O)CCn3ccc(=O)[nH]c3=O)C[C@@H]2N)c1,inactive,–
Cc1ccc(C2=NC3(CCN(C(=O)Cc4ccccc4Cl)CC3)ON2)cc1,active: 11.2 µM,–
CCCn1ccc2oc(C)c(C(=O)NCc3ccc(OC)cc3)c2c1=O,"inconclusive: 3.98 µM [inhibitor, single point]",–
FC(F)(F)c1ccnc(N2CC[C@H](c3nnc(-c4ccncc4)o3)C2)n1,"inconclusive: 10 µM [inhibitor, partial curve, poor fit]",–

Structure (SMILES),Potency,"activity, negative = inhibition"
COCCn1c(C)cc(C(=O)N2CCC(N3C[C@H](O)C[C@H]3C(=O)NC3CCCCC3)CC2)c1C,"inconclusive: 17.8 µM [inhibitor, single point]",–
COc1ccc(NC(=O)Nc2cccc(-c3ccc(N4CCC(C)CC4)nn3)c2)cc1OC,"inconclusive: 12.6 µM [inhibitor, single point]",–
CCCN1CCCC12Cc1ccccc1CN(C(C)=O)C2 (stereo not given),"inconclusive: 11.2 µM [inhibitor, single point]",–
CC(C)CNc1ccc2c(n1)C(C)(C(=O)NCc1ccco1)CN(Cc1ccccc1)C2 (stereo not given),"inconclusive: 1.78 µM [inhibitor, partial curve, poor fit]",–
O=S(=O)(c1cccc(F)c1)N1CCC(Oc2ccc(-n3cnnn3)cc2)CC1,"inconclusive: 11.2 µM [inhibitor, single point]",–
CCOCCCNC(=O)c1c(NC(=O)Cc2coc3ccc(C)cc23)sc2c1CCC2,"inconclusive: 17.8 µM [inhibitor, single point]",–
CCc1ccc(S(=O)(=O)c2c(C(=O)c3ccccc3)cnc3ccc(CC)cc23)cc1,"inconclusive: 12.6 µM [inhibitor, single point]",–
COc1cccc(CN2CC[C@H](c3nc4cc(Cl)ccc4o3)C2)c1,inactive,–
CCS(=O)(=O)N1C[C@@H](C(=O)NCc2ccc(C(C)C)cc2)[C@H](c2ccncc2)C1,"inconclusive: 17.8 µM [inhibitor, single point]",–
CCOCC(=O)N1CCC2(CC1)c1nccn1-c1ccccc1CN2C,–,inactive: 22.8% [at 5.79 µM]
COCCOc1cc(-c2noc([C@@H]3CCCN3CC3CC3)n2)ccn1,"inconclusive: 1.58 µM [inhibitor, partial curve]",–
CCN(C(=O)CN1C(=O)NC2(CCC(C)CC2)C1=O)c1cccc(C)c1 (stereo not given),"inconclusive: 17.8 µM [inhibitor, single point]",–
CCc1ccc(CNC(=O)c2c(C)oc3ncn(CC(C)C)c(=O)c23)cc1,"inconclusive: 10 µM [inhibitor, single point]",–
O=C1[C@@H]2C[C@@H](O)CN2C2(CN(Cc3ccccn3)C2)C(=O)N1Cc1ccccc1Cl,"inconclusive: 31.6 µM [inhibitor, single point]",–
CN1CCN(C(=O)[C@@H]2CCC[C@@H](NC3CCC3)CN(C)C(=O)C2)CC1,inactive,–
COc1ccc(C(=O)N2c3ccc(C)cc3C(C)(c3ccccc3)CC2(C)C)cc1 (stereo not given),"inconclusive: 17.8 µM [inhibitor, single point]",–
COc1cc(C(=O)N2CC[C@@]3(O)CCN(S(C)(=O)=O)C[C@H]3C2)ccn1,inactive,–
COc1cccc(CNC[C@H]2O[C@H](Cc3cc(-c4ccccn4)on3)CC[C@@H]2O)c1,"inconclusive: 11.2 µM [inhibitor, single point]",–
CCc1nc2c(NC(=O)Nc3cccc(C(=O)OC)c3)cccn2n1,"inconclusive: 17.8 µM [inhibitor, single point]",–
CCOC(=O)c1c(C)sc(-c2c(-c3ccc(OC)c(F)c3)[nH]c3[nH]c(=O)[nH]c(=O)c23)c1O,inactive,–
CC1=C(C(=O)Nc2ccc(Cl)cc2)C(c2ccc(C(F)(F)F)cc2)n2nnnc2N1 (stereo not given),"inconclusive: 15.8 µM [inhibitor, single point]",–
CN(C)Cc1cc(CC2(NCc3ccc(C#N)cc3)COC2)no1,"inconclusive: 0.562 µM [inhibitor, full curve, poor fit]",–

Structure (SMILES),Potency,"activity, negative = inhibition"
Cc1cn2nc(C(=O)NCCC3=CCCCC3)cc2c(N2CCCC2)n1,"inconclusive: 7.94 µM [inhibitor, partial curve, poor fit]",–
COc1ccc(-c2cc(-c3cccc4[nH]ncc34)cn3cncc23)cn1,active: 3.98 µM,–
CCOC(=O)c1cc(-c2ccc(OC)cc2)n(CCC(=O)Nc2nc3ccc(OCC)cc3s2)c1C,"inconclusive: 8.91 µM [inhibitor, partial curve, poor fit]",–
COc1ccc(CN2CCOc3nc(-c4cccc(C(F)(F)F)c4)ncc3C2=O)cc1,"inconclusive: 28.2 µM [inhibitor, partial curve, poor fit]",–
CCc1c(C(=O)N2CCc3c(c(C(=O)O)nn3CC3CC3)C2)csc1C,inactive,–
CCN1C(=O)C2(CCN(S(=O)(=O)c3cc(F)ccc3OC)CC2)c2ccccc21,"inconclusive: 3.55 µM [inhibitor, partial curve, poor fit]",–
O=C(Nc1cccnc1)c1cc(-c2ccccc2F)cc2c1OCCN2Cc1cccnc1,"inconclusive: 2.82 µM [inhibitor, partial curve, poor fit]",–
COc1ccccc1C(=O)N1CCn2c(nnc2-c2ccccc2)C1,"inconclusive: 3.55 µM [inhibitor, single point]",–
COc1ccc(-c2noc(CC3CCN(C(=O)c4cc(OC)c(OC)c(OC)c4)CC3)n2)cc1,"inconclusive: 20 µM [inhibitor, single point]",–
COc1ccc(-n2cc(-c3ccnc(NCCC4CCCN4C)n3)cn2)cc1 (stereo not given),"inconclusive: 12.6 µM [inhibitor, single point]",–
O=C(c1ccc(Cl)cc1)N1CCOCC12CCN(CCc1ccccc1)CC2,"inconclusive: 5.62 µM [inhibitor, partial curve]",–
CCc1ccccc1-n1nc(-c2c(C)nc3scc(CC(=O)NCCC(C)C)n3c2=O)cc1C,inactive,–
Nc1cccc(-c2cn(C[C@H]3CC4CCN3C[C@@H]4C(=O)NC3CCCCC3)nn2)c1 (stereo not given in full),"inconclusive: 31.6 µM [inhibitor, single point]",–
O=C(C[C@@H]1O[C@H](CNCc2ccc(F)cc2)[C@@H](O)[C@H]1O)NCCN1CCOCC1,inactive,–
Cc1cccc2sc(N(CCCN(C)C)C(=O)COc3ccccc3)nc12,"inconclusive: 7.94 µM [inhibitor, partial curve]",–
COCCNc1cc(-c2cc(C(F)(F)F)ccn2)c2cc[nH]c2n1,active: 10 µM,–
CCN(CC)S(=O)(=O)c1ccc2oc(C(=O)NCc3ccccc3OC)c(C)c2c1,active: 7.94 µM,–
Cc1ccc(C)c(N2CCN(C(=O)c3cc(S(=O)(=O)N4CCCCCC4)cn3C)CC2)c1,"inconclusive: 1.78 µM [inhibitor, full curve, poor fit]",–
COCCCNC(=O)c1ccc(Cn2c(SCc3cccc(C)c3)nc3cccnc32)cc1,inactive,–
Cc1ccc(Cl)cc1N1CCN(C(=O)CN2C(=O)CSc3c2c(C)nn3-c2ccccc2)CC1,inactive,–
Cc1cccc(NC(=O)N2CCC(CCNC(=O)Cc3cccc(F)c3)CC2)c1,inactive,–
